Measured values reported in the supplement of paper PMC3724861.
The other results are listed elsewhere or left out.

These sequences were tested on T1, Caupolican (Caup) homeodomain DNA-binding domain (assay: PBM E-score (8-mer, recovered from the published 9-mer minima) (E-score (dimensionless, -0.5 to 0.5)); Drosophila protein; higher = stronger relative binding preference, active = 0.31 or more).
T1 sequence: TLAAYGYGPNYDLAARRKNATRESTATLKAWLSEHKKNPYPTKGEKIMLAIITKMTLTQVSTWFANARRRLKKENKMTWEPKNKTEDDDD
How it was run: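 An enrichment score, with higher meaning stronger, expresses relative binding preference for each short DNA word. The protein used was Caup's homeodomain DNA-binding domain (residues 214-303), produced by in vitro transcription and translation and tested at 100 nM on custom-designed protein binding microarrays. The 8-mer values were recovered from published 9-mer scores, each equal to the lower of its two constituent 8-mer scores.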

| Sequence | PBM E-score |
| --- | --- |
| CTGAGAAC | inactive: 0.0563 |
| TCATTTCA | inactive: 0.0666 |
| CAAATGTC | inactive: 0.141 |
| ATTGGCGC | inactive: -0.109 |
| CTGGGAAG | inactive: -0.191 |
| AAAGGGCC | inactive: -0.21 |
| CACTCGAC | inactive: 0.0164 |
| ACATGGAC | active: 0.338 |
| AGCCCACA | inactive: -0.0841 |
| ATGCACCC | inactive: -0.0289 |
| GGACAAAA | inactive: 0.0445 |
| CGGCATTC | inactive: -0.152 |
| GGGGTATA | inactive: -0.109 |
| CCGCGACG | inactive: -0.223 |
| ACATGGCG | inactive: 0.191 |
| AAGTTAAA | inactive: 0.112 |
| ATAGGTAG | inactive: 0.0356 |
| CTTCTGAA | inactive: -0.0808 |
| ACGGGCTA | inactive: -0.16 |
| GCTTGCAA | inactive: 0.115 |
| TAATCTCA | inactive: 0.0667 |
| AATTCTAC | inactive: 0.16 |
| ACGATAAG | inactive: 0.0851 |
| GCGAATAA | inactive: 0.0338 |

| Sequence | PBM E-score |
| --- | --- |
| AGACCGAG | inactive: -0.0404 |
| AAGTCCAG | inactive: -0.0216 |
| CCAGGGCC | inactive: -0.225 |
| GGAATGGA | inactive: -0.0697 |
| ACTTAAGC | inactive: -0.00779 |
| CGGGACGA | inactive: -0.0871 |
| AAAAAGAG | inactive: -0.0876 |
| GGCAGTAA | inactive: -0.0226 |
| GCAGCACA | inactive: -0.0955 |
| ACCCGGAG | inactive: -0.0531 |
| GAGGATTA | inactive: 0.0358 |
| GCCGACAC | inactive: -0.0167 |
| CTTCGATA | inactive: 0.0741 |
| GAACTTGC | inactive: 0.0541 |
| ACTGTAAA | inactive: 0.154 |
| AAACCAAA | inactive: 0.0468 |
| ATGGGTAG | inactive: -0.0307 |
| CATAAGAC | inactive: 0.163 |
| TGACCGAA | inactive: -0.0489 |
| GCCTGCCA | inactive: -0.158 |
| CATGTACC | active: 0.416 |
| AGGCTAAT | inactive: 0.0206 |
| CACGCTTA | inactive: 0.0972 |
| AATGCTGT | inactive: 0.117 |

| Sequence | PBM E-score |
| --- | --- |
| CCCGAAAA | inactive: -0.0642 |
| AGTGTGCC | inactive: -0.111 |
| CGGGGGTA | inactive: -0.2 |
| AAATAGTA | ≥ 0.187 |
| ACTGTCTG | inactive: -0.0192 |
| GTCAACAA | inactive: 0.285 |
| AGCCAGCC | inactive: -0.205 |
| CCAAAACC | inactive: 0.0157 |
| CCAGCGAA | inactive: -0.0855 |
| CAGGTGAA | inactive: 0.133 |
| CAGATCCA | inactive: 0.0202 |
| GCCGCCTA | inactive: -0.223 |
| AGTTATCG | inactive: 0.0572 |
| AAGCTAAT | ≥ 0.138 |
| CGTGGGGC | inactive: -0.31 |
| ACCAACAT | ≥ 0.285 |
| CTGTGTAC | inactive: 0.272 |
| CTATCGAG | inactive: -0.0187 |
| CCGTACTC | inactive: -0.128 |
| GGTCACCA | inactive: -0.166 |
| GCCGTGAC | inactive: 0.0192 |
| GCATGCGA | inactive: 0.0804 |
| GGTTCTGA | inactive: 0.0192 |
| CGTTACGA | inactive: 0.0114 |

| Sequence | PBM E-score |
| --- | --- |
| ATGATTAG | inactive: 0.167 |
| ATAGGACG | inactive: 0.0328 |
| GGCTACCA | inactive: -0.0789 |
| AGCCACCT | inactive: -0.138 |
| GATTTCAA | inactive: -0.00333 |
| TGATAAAA | inactive: 0.0449 |
| ATGGCCCA | ≥ -0.0993 |
| AATCAAGA | inactive: 0.097 |
| TAAAAGTA | inactive: 0.107 |
| CCCCTCCC | inactive: -0.234 |
| AACGCATT | ≥ 0.094 |
| GGAGATAC | inactive: -0.087 |
| CTTCCCGA | inactive: -0.0231 |
| CGTGACAA | inactive: 0.217 |
| GGGACGAA | inactive: -0.0882 |
| CAGGGCGA | inactive: -0.0706 |
| ATCTTGAG | inactive: 0.0656 |
| CATCTTGA | inactive: 0.0495 |
| ACTGACCG | inactive: -0.149 |
| CAATGATG | inactive: 0.165 |
| CCCGGTGA | inactive: -0.165 |
| ACGTAACC | inactive: 0.0348 |
| GGACATTA | inactive: 0.213 |
| GGATGGTA | inactive: 0.108 |

| Sequence | PBM E-score |
| --- | --- |
| AGCCCAAC | inactive: -0.104 |
| CGTCGCAG | inactive: -0.131 |
| ATCGACTC | inactive: 0.0139 |
| AGTCATCA | inactive: -0.016 |
| GGAACAGA | inactive: 0.154 |
| CTGCCTAA | inactive: -0.024 |
| ATTTATGG | inactive: 0.124 |
| CATGACCC | inactive: 0.0525 |
| CTCAACCC | inactive: -0.2 |
| GCCACCAC | inactive: -0.199 |
| CACTTGCC | inactive: -0.021 |
| CTCAGGTC | inactive: -0.098 |
| CGTTTTCC | inactive: 0.0392 |
| ATGACCCG | inactive: -0.0641 |
| GCATACGA | inactive: 0.00412 |
| CCGCAGAA | inactive: -0.0611 |
| CATGTAGC | active: 0.332 |
| AAGCGTGC | inactive: -0.0578 |
| TCTTTGCA | inactive: 0.02 |
| CTTCTAAC | inactive: -0.035 |
| AACTATAA | inactive: 0.134 |
| TAAGCCTA | inactive: -0.0476 |
| CTCTAACC | inactive: -0.0687 |
| CAGCTCCG | inactive: -0.112 |

| Sequence | PBM E-score |
| --- | --- |
| AATACTCG | inactive: 0.138 |
| CGTCTGTC | inactive: 0.0202 |
| CTACAAGA | inactive: 0.263 |
| CGCTTTCA | inactive: -0.0255 |
| GACATGAA | active: 0.318 |
| CGCGCACG | inactive: -0.139 |
| ACTTCGCG | inactive: -0.0742 |
| ACTACAAG | active: ≥ 0.378 |
| AGCCTATG | inactive: 0.0254 |
| GTTCTCAA | inactive: 0.12 |
| CGACGCAC | inactive: -0.0645 |
| GATGGACC | inactive: -0.00754 |
| ACTTGGCA | ≥ 0.0126 |
| CGTAGCAG | inactive: -0.105 |
| GGACTTCA | inactive: -0.116 |
| GGTTCACA | inactive: 0.0707 |
| GAGTGCCC | inactive: -0.168 |
| ACTTCCCT | inactive: -0.0978 |
| CAGGCGTA | inactive: 0.00152 |
| GGCATACA | inactive: 0.106 |
| CCCAGAGC | inactive: -0.237 |
| ACAGTCAC | inactive: 0.0665 |
| TAAGTTGA | inactive: 0.135 |
